Laboratory results reported in paper PMC4336329 (PLoS ONE, 2015).
The whole screen tested about 310,000 compounds, of which about 14,000 (4.5%) showed an effect of 50% or more. Effects have a minus sign here. The list shows a part of the results.

Target: human ether-à-go-go-related gene (hERG) potassium channel (human, UniProt Q12809)
Assay: primary screen, population patch clamp on CHO cells stably expressing hERG
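Further: peak tail current of the secondary pulse compared with the same well before compound.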

Chain of human ether-à-go-go-related gene (hERG) potassium channel (Q12809 whole entry, looked up): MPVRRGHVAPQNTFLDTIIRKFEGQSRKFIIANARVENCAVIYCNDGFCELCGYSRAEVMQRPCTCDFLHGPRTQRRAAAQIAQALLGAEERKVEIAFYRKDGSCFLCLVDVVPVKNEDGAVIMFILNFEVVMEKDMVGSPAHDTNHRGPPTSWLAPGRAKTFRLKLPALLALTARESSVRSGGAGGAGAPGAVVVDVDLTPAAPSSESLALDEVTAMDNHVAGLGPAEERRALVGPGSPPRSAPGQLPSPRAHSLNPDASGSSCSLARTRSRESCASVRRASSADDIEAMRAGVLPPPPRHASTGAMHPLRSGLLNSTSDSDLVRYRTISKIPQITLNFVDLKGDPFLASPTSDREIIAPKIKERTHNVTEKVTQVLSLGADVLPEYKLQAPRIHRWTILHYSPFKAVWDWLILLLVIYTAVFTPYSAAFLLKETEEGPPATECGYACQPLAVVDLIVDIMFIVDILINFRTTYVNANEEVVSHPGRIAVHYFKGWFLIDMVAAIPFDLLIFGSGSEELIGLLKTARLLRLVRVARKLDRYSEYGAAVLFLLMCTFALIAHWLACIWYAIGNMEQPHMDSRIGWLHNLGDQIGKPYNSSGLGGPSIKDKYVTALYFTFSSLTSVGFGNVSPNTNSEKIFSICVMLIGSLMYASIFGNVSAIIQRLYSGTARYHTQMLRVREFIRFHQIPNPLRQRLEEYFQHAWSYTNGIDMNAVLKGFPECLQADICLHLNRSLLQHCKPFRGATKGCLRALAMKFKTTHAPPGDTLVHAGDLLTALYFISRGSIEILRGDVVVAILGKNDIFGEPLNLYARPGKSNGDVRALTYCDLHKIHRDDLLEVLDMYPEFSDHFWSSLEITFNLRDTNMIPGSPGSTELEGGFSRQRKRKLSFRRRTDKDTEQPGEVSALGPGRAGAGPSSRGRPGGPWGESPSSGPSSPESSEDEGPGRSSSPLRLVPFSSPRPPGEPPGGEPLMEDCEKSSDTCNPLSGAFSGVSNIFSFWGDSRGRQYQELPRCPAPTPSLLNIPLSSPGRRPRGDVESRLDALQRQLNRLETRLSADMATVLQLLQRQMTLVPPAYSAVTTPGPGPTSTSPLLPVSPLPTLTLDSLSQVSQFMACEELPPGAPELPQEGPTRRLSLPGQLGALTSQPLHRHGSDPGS

Compound | hERG current change (%, negative = inhibition) at 10uM
COc1cccc(NC(=O)CSc2nc3ccccc3c(=O)n2Cc2cccs2)c1 | 8.3%
O=C1NC(=NCc2ccccc2)S/C1=C\c1ccccc1 | 23.8%
COc1cccc(NC(=O)COC(=O)c2cccnc2)c1 | 4.09%
CC(=O)c1sc2nc(-c3ccc(C)cc3)c3c(c2c1N)CCCC3 | 2.68%
O=C([C@@H]1CC=C[C@@H]2CCN(C3CC3)C(=O)[C@@H]21)N1CCN(c2ccccc2)CC1 | 4.08%
COc1ccc(/C=N/NS(=O)(=O)c2ccc(F)cc2)cc1COc1cc(F)ccc1[N+](=O)[O-] | -3.47%
COCCCNC(=O)c1ccc(N(C)S(=O)(=O)c2ccc(OC)cc2)cc1 | -20.6%
CCN(CC)S(=O)(=O)c1ccc(C(=O)NNc2nc(-c3ccccc3)c3cc(Br)ccc3n2)cc1 | 6.53%
Cn1nc(-c2ccccc2)c(C(=O)NCC(=O)O)c1Cl | 18%
CCN(CC)C(=O)COC(=O)c1ccc(C)c(NC(=O)c2ccco2)c1 | 32.3%
Cc1ccccc1NC(=O)/C(=C\c1cccs1)NC(=O)c1ccccc1 | -1.92%
Cc1cccc(NC(=O)CSCC(=O)N2CCN(Cc3ccc4c(c3)OCO4)CC2)c1 | -23.3%
COc1ccc(CCNC(=O)COC(=O)/C=C/c2ccc(OC)c(OC)c2)cc1 | -16%
Cc1ccc(Oc2ccc(S(=O)(=O)N3CCOCC3)cc2C(N)=O)c(-n2nc3ccccc3n2)c1 | -40%
CC1COc2ccccc2N1S(=O)(=O)c1ccc(Cl)cc1 (centres unmarked) | -4.34%
CCc1ccc(CN2CCN(Cc3ccc(SC)cc3)CC2)cc1.O=C(O)C(=O)O | -67.9%
CCN(CC)S(=O)(=O)c1ccc(O)c(NC(=O)c2ccc(N3CCOCC3)c([N+](=O)[O-])c2)c1 | -2.91%
CC(C)(C)C(=O)Nc1nc(NC(=O)C(C)(C)C)nc(-c2ccccc2Cl)n1 | 2.78%
Cc1ccc(/C=C/C(=O)CCC(=O)O)cc1 | 12.2%
CCCC1CCC(=C(C#N)C(N)=O)CC1 (centres unmarked) | -32.8%
O=C(NCc1ccc2c(c1)OCO2)c1c[nH]c2ccc(S(=O)(=O)N3CCOCC3)cc2c1=O | 0.962%
ClC1(Cl)CC1Cn1c(C2CC2)nc2ccccc21 (centres unmarked) | -5.84%

Compound | hERG current change (%, negative = inhibition) at 10uM
CCN1C(=O)[C@H]2[C@@H](c3ccc(-c4ccc(Cl)c(Cl)c4)cc3)N3CCCC[C@@]3(C(=O)OC)[C@H]2C1=O.O=C(O)C(F)(F)F | 23.1%
Cc1[nH]c2ccccc2c1CCO | 5.37%
O=C(/C=C/c1ccccc1)OCc1cnc(Cl)s1 | -6.4%
O=C(c1ccco1)N1CCN(C(=O)C2CCN(S(=O)(=O)Cc3ccccc3)CC2)CC1 | -6.67%
COc1ccc(NC(=O)c2ccc3nccnc3c2)cc1 | 9.16%
Cc1cccc(N2CCN(c3nc4ccc(Cl)cc4n4cnnc34)CC2)c1C | -4.08%
O=C(O)C1=C[C@@H](C2CCCCC2)C[C@@H](OCCCCO)O1 | 9.42%
Cc1cc(C2(c3ccc(O)c(C)c3)C(=O)Nc3ccccc32)ccc1O | -5.5%
Br.N=C1c2ccccc2CN1NC(=O)c1ccc(F)cc1 | 5.11%
COc1ccc(NC(=O)Nc2ccc(OCc3ccccc3)cc2)cn1 | 20.4%
Cc1cc(C)c2c(N)c(C(=O)N3CCCCCC3)sc2n1 | -21.9%
O=C(NNC(=O)c1ccc2ccccc2n1)c1ccc(O)cc1 | -0.416%
Cc1ccc(C(=O)N2CCN(S(=O)(=O)c3ccccc3[N+](=O)[O-])CC2)o1 | -17.3%
COc1ccc(-c2nc(N)nc(N)n2)c(O)c1 | 9.39%
COc1ccc(-c2cc(=NCC(=O)O)c3ccccc3o2)cc1.[O-][Cl+3]([O-])([O-])O | -31.5%
COCC1CCCCN1Cc1cn[nH]c1-c1ccc2cc(OC)ccc2c1 (centres unmarked) | -70.2%
O=C(Nc1ccc(F)cc1)c1cccc(N2C(=O)C3C4C=CC(C4)C3C2=O)c1 (centres unmarked) | -39.6%
CCCC1OC23CCCCC2C(C#N)(C#N)C1(C#N)C(=N)O3 (centres unmarked) | -6.73%
c1ccc(C(c2ccccc2)c2nc(-c3cccnc3)no2)cc1 | -0.438%
CC(Cc1ccccc1)C(=O)NCCO (centres unmarked) | 7.87%
Cn1c(=O)[nH]c(=O)c2c1nc(Br)n2CC(O)c1ccccc1 (centres unmarked) | 10.2%
Cc1ccccc1NC(=O)N1CCN(c2ncccn2)CC1 | 4.15%

Compound | hERG current change (%, negative = inhibition) at 10uM
O=C(Cn1cc(C(=O)COc2ccccc2)c2ccccc21)NCc1ccco1 | -0.105%
COc1ccc(Cc2nc3ccc(C(=O)NCCc4cccc(C)n4)cc3o2)cc1 | -0.594%
CCCCN=C(Nc1ccc(Cl)cc1)c1cccnc1 | -9.16%
O=C(O)CCn1cc(C=C2C(=O)NC(=S)NC2=O)c(-c2ccccc2)n1 | 19.2%
O=S(=O)(Nc1nnc(C(F)(F)F)s1)c1ccc(Cl)cc1 | 10.8%
CN1C(C(=O)NCc2ccc(OC(F)(F)F)cc2)CC2Cn3c(nc4ccccc43)C21 (centres unmarked) | -78.7%
CCCCC(=O)N(CCC)CCC | 15.1%
Cc1ccc(CCC(=O)Nc2ccc(C#N)cc2)o1 | -14.8%
CCCSc1nnc(CNC(=O)C23CC4CC(CC(C4)C2)C3)n1Cc1ccccc1 | -24.4%
CC1(C)OC(=O)C(=Cc2ccc(-c3ccc(Cl)c(C(=O)O)c3)o2)C(=O)O1 | 15.8%
O=S(=O)(/C=C/c1ccccc1)N1CCN(Cc2ccccc2)CC1 | -25.3%
COC(=O)c1ccccc1NC(=O)Oc1ccc(C(C)C)cc1 | 2.1%
O=C(O)CCCN1C(=O)C2C3c4ccccc4C(c4ccccc43)[C@@H]2C1=O (some centres unmarked) | 13%
COc1ccc(NC(=O)c2cc(S(=O)(=O)N3CCCC3)cn2C)cc1Cl | 1.28%
COc1ccc(Cc2nc3ccccc3n2CC(=O)N/N=C/c2ccccc2)cc1OC | 12.3%
COc1ccc(N2CC(NS(=O)(=O)c3cccnc3)CC2=O)cc1OC (centres unmarked) | 36.3%
Cc1cc(C)c(C)c(S(=O)(=O)NCC(=O)N2CCCC2)c1C | 7.49%
O=C1/C(=C\c2cccs2)Sc2ccc3ccccc3c21 | 9.58%
O=C(C1CC(=O)N(c2ccccc2)C1)N1CCN(c2ccccc2F)CC1 (centres unmarked) | -13.4%
COc1ccccc1C(c1nnnn1Cc1ccccc1)N1CCN(c2nc3ccccc3s2)CC1.Cl (centres unmarked) | 23.1%
COc1ccc(/C=C2\SC(=S)N(CCCC(=O)N3CCOCC3)C2=O)cc1 | -21.5%
CSCCC(NC(=O)c1ccccc1)C(=O)NCCc1ccc2c(c1)OCCO2 (centres unmarked) | -8.03%

Compound | hERG current change (%, negative = inhibition) at 10uM
Cn1c(SCC(=O)NNC(=O)Nc2ccccc2)nnc1-c1ccccc1 | 8.73%
O=C(Nc1ccccc1C(=O)Nc1ccc2c(c1)OCO2)c1ccco1 | 2.46%
COc1ccc(S(=O)(=O)N2CCC(C(=O)N[C@@H](C)C(=O)NCc3cccc(OC)c3)CC2)cc1 | 15.3%
Nc1ccccc1Nc1cc(-c2ccccc2)nn1-c1ccccc1 | -3.56%
Fc1ccccc1CSc1nnnn1-c1ccc2c(c1)OCO2 | -18.5%
NS(=O)(=O)c1ccc(NC(=O)COC(=O)CCNC(=O)NC23CC4CC(CC(C4)C2)C3)cc1 | 0.608%
Cc1coc2c1c(C)cc1oc(=O)c(CC(=O)N[C@@H](CC(C)C)C(=O)O)c(C)c12 | -16.2%
COc1ccc(OC)c(N2CC(O)(c3cccs3)[N+]3=C2SCCC3)c1.[Br-] (centres unmarked) | -50.5%
Cc1csc(NC(=O)C2COc3ccccc3O2)n1 (centres unmarked) | -18.9%
Cc1cccc(-n2c(N)cc(=O)[nH]c2=S)c1 | -1.56%
CSc1ccc(Cl)c(C(=O)NCCCn2ccnc2)c1 | -7.9%
O=C(NNC(=O)c1ccc(Cl)cc1Cl)c1csc(-c2cccnc2)n1 | -44.8%
Cc1cnc(C(=O)Nc2ccc(S(=O)(=O)N(C(C)C)C(C)C)cc2)cn1 | 2.87%
COc1ccc(C2=C3C(=O)OCC3Cc3ncn(Cc4ccccc4)c32)cc1 (centres unmarked) | 4.51%
O=C(c1nc2ccc(Cl)cn2c1CN1CCC(CO)CC1)N1CCc2ccccc2C1 | -16.4%
CC1CCN(S(=O)(=O)c2cc([N+](=O)[O-])ccc2Cl)CC1 | -24%
CC1(C2CC2)NC(=O)N(CC(=O)Nc2ccc(Cl)c([N+](=O)[O-])c2)C1=O (centres unmarked) | -1.15%
O=C(c1cc(COc2ccc(F)cc2Cl)on1)N(Cc1ccncc1)CC1CCCO1 (centres unmarked) | -60.7%
COc1ccccc1NC(=O)C(C)OC(=O)Cc1n[nH]c(=O)c2ccccc12 (centres unmarked) | 9.99%
COCCNC(=O)COC(=O)c1ccc(S(=O)(=O)N2CCOCC2)cc1 | 13.6%
